Results reported in article PMC6919601, “Identification of Plasmodium dipeptidyl aminopeptidase allosteric inhibitors by high throughput screening” (PLoS ONE, 2019).
About 230 (0.21%) of roughly 110,000 compounds showed an effect of 50% or more. Some of the results follow.

What follows are compounds tested against DPAP1 (Plasmodium falciparum, UniProt Q8IIJ9) (assay: primary screen, percent inhibition; read by cleavage of a fluorogenic dipeptide substrate; higher = more effect of the substance).
Sequence of DPAP1 (Q8IIJ9 whole entry, looked up): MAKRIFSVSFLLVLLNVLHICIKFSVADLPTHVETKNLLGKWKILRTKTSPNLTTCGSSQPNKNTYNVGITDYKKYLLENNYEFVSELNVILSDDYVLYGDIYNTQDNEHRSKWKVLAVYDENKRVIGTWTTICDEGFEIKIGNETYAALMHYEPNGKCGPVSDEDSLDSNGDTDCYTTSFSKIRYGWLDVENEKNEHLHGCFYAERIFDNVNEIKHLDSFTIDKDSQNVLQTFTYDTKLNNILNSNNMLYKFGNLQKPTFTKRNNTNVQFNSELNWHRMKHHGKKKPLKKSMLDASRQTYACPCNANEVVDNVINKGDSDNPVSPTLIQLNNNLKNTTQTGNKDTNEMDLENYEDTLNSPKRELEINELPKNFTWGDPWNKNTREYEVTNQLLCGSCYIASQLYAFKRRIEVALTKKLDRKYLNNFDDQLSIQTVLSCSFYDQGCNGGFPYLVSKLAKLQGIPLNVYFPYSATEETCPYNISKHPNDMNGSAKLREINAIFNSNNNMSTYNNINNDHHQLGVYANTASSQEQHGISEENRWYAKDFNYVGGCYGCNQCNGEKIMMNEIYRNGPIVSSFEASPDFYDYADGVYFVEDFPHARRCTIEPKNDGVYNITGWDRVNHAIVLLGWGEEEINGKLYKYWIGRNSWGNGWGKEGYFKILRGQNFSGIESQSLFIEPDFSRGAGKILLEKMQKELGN
Set-up: species or system P. falciparum D10 trophozoite lysates; single well
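Note: 30 min substrate incubation versus DMSO and 10 µM JCP410 controls.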

SMILES	% Inhibition @ 10 uM [%]
Cc1ccc(-n2ncc3c(N(C)C4CCCCC4)ncnc32)c(C)c1	9.64
CN1C(=O)c2ccc(NC(=O)c3ccc(Br)o3)cc2C1=O	0.389
O=S(=O)(Nc1cccc(-c2cn3ccsc3n2)c1)c1ccc(Cl)c(Cl)c1	3.05
O=C(Nc1cccc2cccnc12)c1cncc(Br)c1	0.161
CCCc1nnc(NC(=O)Cc2coc3ccc(CC)cc23)s1	2.62
CCCc1cc(O)n2nc(NCc3ccc(OC)cc3)nc2n1	-9.95
O=c1ccoc2cc(OCc3ccccc3)ccc12	0.323
CCN1CCCC1CNC(=O)c1cc2c(s1)-c1ccc(Cl)cc1SC2 (stereo not drawn)	-6.33
CCOC(=O)C1=C(CNCCCOC)NC(=O)NC1c1ccc(C)cc1 (stereo not drawn)	0.708
CC(C)C[C@H](NC(=O)c1ccc(N2CCN(C)CC2)cc1)C(=O)NCCCN1CCCC1	-4.72
OCC1OC2OC3(CCCCC3)OC2C2OC3(CCCCC3)OC12 (stereo not drawn)	-2.97
Oc1cc(-c2ccccc2)nc2c(-c3ccc(Cl)cc3)c(Cc3ccccc3)nn12	3.32
CCO/C(O)=C1\C(C)=NC2=C(C(=O)CCC2)C1c1ccco1 (stereo not drawn)	1.38
CC1=C(C(=O)Nc2ccccc2F)C(c2ccccn2)C2=C(O)CC(C)(C)CC2=N1 (stereo not drawn)	-2.68
O=C(c1ccc(CS(=O)Cc2ccc(Cl)cc2)o1)N1CCN(C2CCCCC2)CC1 (stereo not drawn)	6.15
Cc1cc(C)c(S(=O)(=O)N2CCN(c3cccc(Cl)c3)CC2)c(C)c1	3.47
COc1ccc2c(CNCCc3cccs3)c(C(=O)O)n(Cc3ccc(C)cc3)c2c1	-1.53
Cc1ccc(NC(=O)c2ccccc2Cl)cc1C	0.526
Cc1nn(-c2ccc(Cl)cc2)c(O)c1/C=N/c1ccc(S(=O)(=O)N2CCOCC2)cc1	4.61
c1cncc(-c2nc3c4c5c(sc4ncn3n2)CCCC5)c1	-6.22
COC(=O)C1=CN(CCc2ccc(F)cc2)C=C(C(=O)OC)C1c1ccsc1	-1.83

SMILES	% Inhibition @ 10 uM [%]
Oc1ccnc2nc(C(Cl)(Cl)Cl)nc(-c3ccccc3)c12	-1.82
C=CCOc1ccc(CNc2cccc(C(=O)O)c2)cc1	1.83
COC(=O)C1=C(C)N(C)C(=O)NC1c1ccc(Cl)cc1 (stereo not drawn)	-1.56
CCOc1cc2c(cc1OCC)C(c1ccc3c(c1)OCO3)NCC2 (stereo not drawn)	2.49
Cc1ccc(N2C(=O)CC(NCc3ccc(Cl)cc3)C2=O)cc1Cl (stereo not drawn)	-5.69
CC(C)(C)c1ccc(C(=O)N2CCC(C(=O)NC3CC3)CC2)cc1	1.52
COc1cc(C2C=C(c3ccc(Cl)cc3)Nc3nnnn32)ccc1OC(F)F (stereo not drawn)	3.12
O=C(NCc1ccc(F)cc1Cl)C1CCN(S(=O)(=O)N2CCC3(CC2)OCCO3)CC1	-2.99
O=C(NCCc1ccccc1)N1CCN2CCCCC2C1 (stereo not drawn)	-2.31
COc1cccc(N(CC(=O)NCc2ccc(Cl)cc2)S(C)(=O)=O)c1	-1.96
Cc1ccc(C2=CC(c3ccccc3C)n3nnnc3N2)cc1 (stereo not drawn)	-9.03
C=CCN(CC=C)S(=O)(=O)c1ccc(C(=O)Nc2sc3c(c2C(=O)OC)CCN(C)C3)cc1	6.31
Clc1ccccc1CN1CCN(Cc2ccco2)CC1	3.81
CCOC(=O)C1=C(CSc2nc(C)cc(C)c2C#N)OC(N)=C(C#N)C1c1ccc(F)cc1 (stereo not drawn)	1.76
Cc1nnc(N2CCC(C(=O)N3CCOCC3)CC2)c2nn(-c3ccc(Cl)cc3)c(C)c12	4.07
COC(=O)C1=CN(Cc2ccc(OC)cc2)C=C(C(=O)OC)C1c1ccc(C(F)(F)F)cc1	-5.03
COc1ccccc1OCCCCN1CCCCC1	-9.84
COc1cc(/C=C(\C#N)c2nc3ccccc3[nH]2)cc(Cl)c1O	-2.89
CC1(C)CC(c2ccc(Cl)cc2Cl)OC(c2ccccc2)=N1 (stereo not drawn)	0.962
Cc1cccc(NS(=O)(=O)c2cccc(C(=O)Nc3ccc([N+](=O)[O-])cc3)c2)c1	-5.36
COC(=O)C1=C(C)N(Cc2ccccc2)C(=O)/C1=C\c1c(Cl)cccc1Cl	3.43

SMILES	% Inhibition @ 10 uM [%]
NC(=O)c1cccc(NC(=O)c2ccc(-c3ccccc3)cc2)c1	-6.44
Cc1nc(O)nc(O)c1S(=O)(=O)N1CCC(C(=O)NC(C)c2ccccc2)CC1 (stereo not drawn)	-2.56
C=CCN1C(=O)S/C(=C/c2ccc(C(F)(F)F)cc2)C1=O	-1.22
COC(=O)CN(CC(=O)OC)C(=O)c1ccccc1	3.25
CC(=O)Nc1ccc2nc(C)c(C/C=C(/C)Cl)c(O)c2c1	-4.93
CC1(C)CC(=O)c2cc(OCC(=O)NCc3ccccc3)ccc2O1	-1.96
O=C(O)c1ccc2c(c1)C(=O)N(c1ccccc1)C2=O	-7.9
Cc1ccc(NS(=O)(=O)c2ccccc2[N+](=O)[O-])cc1	-2.44
CS(=O)(=O)N1N=C(c2ccccc2)CC1c1ccccc1F (stereo not drawn)	-1.68
CCCC(=O)Nc1nn2c(-c3cccs3)nnc2s1	-0.361
CO/C(O)=C1\C(C)=NC2=C(C(=O)CCC2)C1c1ccccc1C (stereo not drawn)	3.65
CCn1nc(C)c(/C=C2\CCCC3=C2OC(N)=C(C#N)C3c2c(C)nn(CC)c2C)c1C (stereo not drawn)	1.35
CCNC(=O)C(CC(C)C)NC(=O)OC(C)(C)C (stereo not drawn)	-9.6
CCCCCCSC1=C(C#N)C(c2ccc(OC)cc2)CC(=O)N1 (stereo not drawn)	-0.769
COc1ccccc1NC(=O)/C(=C/c1ccccc1Cl)NC(=O)c1ccccc1	4.01
COc1ccc(C2C(C#N)=C(N)N(c3ccc(Cl)cc3)C3=C2C(=O)CCC3)cc1 (stereo not drawn)	-0.725
O=C(OCCCC(=O)N1CCOCC1)c1ccccc1	-0.693
Cn1nccc1C(=O)NCCN1C(=O)OC(C)(C)C1(C)O (stereo not drawn)	0.983
CC(C)N1C/C(=C/c2cccnc2)C(=O)/C(=C/c2cccnc2)C1	1.74
O=C1c2ccccc2CN1CCSC(=S)N1CCOCC1	-5.96
O=C(NCCCc1ccccc1)c1ccc2nc(N3CCCCC3)sc2c1	-6.01
